Test results reported in the supplement of paper PMC11417369.
This is one part of the list.

Tested on: PF3D7_0420300 AP2 domain 1 (GST-tagged)
Assay: gcPBM binding intensity (ln(normalized median fluorescence intensity)); higher = stronger DNA binding
In short: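 After 1 h on an Agilent 4 × 180k array of primer-extended double-stranded 36-bp intergenic genomic probes and negative controls, bound GST-tagged P. falciparum DNA-binding domains were detected with Alexa488 anti-GST antibody and scanned at 488 nm. The domains had been expressed in E. coli, and binding took place in 1× PBS with 1% milk, 0.2 mg/ml BSA, 0.5% salmon testes DNA and 0.03% Triton X-100. Binding intensity is the highest Masliner-normalised natural-log median intensity across replicate spots of either probe orientation.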

| Sequence | gcPBM binding intensity (ln) |
| --- | --- |
| TATACATTTATGTACACACACATATAGGTATATTTA [CACACA_site7408] | 9.61 |
| AAAATATAATATATTACACACATATATTTTATAAGT [CACACA_site668] | 9.52 |
| TTTTAGAGTGGTATATATTAATTTTTAATAAAAAAA [CACACA_negctrl_site1652] | 8.73 |
| ATAATATATACTATATGTACATATCTTTTCCTCTTT [XGTACX_site5553] | 9.5 |
| TTTTTCATAAAAAAATAAAAAAAATTAACATAGAAA [XGTACX_negctrl_site11] | 8.96 |
| AATAAAAGAAGACAGAGTACACAGGTTGTATTTTCC [XGTACX_site7208] | 9.51 |
| TGTGCATAAATTTATGCACACATAAAAAAAAAAAAA [CACACA_site8954] | 9.14 |
| ATAGTATCTGGTAGCTGTACGAGTCGTAGAGTGTAG [XGTACX_site2030] | 9.19 |
| TATAATAATAATTATTGTACGATTAGGTTAATTCAT [XGTACX_site1984] | 9.16 |
| AGAAAGGTGGTATTAAAAGAATAACCTATGAATAAA [GTGCAC_negctrl_site325] | 9.28 |
| TATGTATTTTTTAAGTGTACCTATATATATATATAT [XGTACX_site7934] | 9.36 |
| TGGGAAGGGTGGGAAACTTTATCAAAAACTTATTAC [GTGCAC_negctrl_site16] | 9.48 |
| AAAAAATTATACCTTTGTACATAAATAAAATATTAT [XGTACX_site418] | 9.07 |
| TATGTATATATTTACGCATGCTACTCTATTTTGAGA [TGCATGCA_site990] | 9.1 |
| ACCCATTGCTCACGTGCACACATAGAAAAATAATTC [CACACA_site4389] | 9.52 |
| ATAACATAAGGAAATACACACATATATAAGTATATA [CACACA_site778] | 9.74 |
| AGGTTTCATTTAGCATGTACATATTATAAAAATTGT [XGTACX_site8448] | 9.33 |
| AAGATTACTTATATATGTACACATAATACAAATGTC [XGTACX_site520] | 9.14 |
| TCTGTTAATATTTATACACACATATATATATATATA [CACACA_site1139] | 9.53 |
| TTGTTCTATTTAAGTAGTACATACACACACATATAC [XGTACX_site8484] | 9.9 |
| ACATATATATATTCTACACACTTATAATATAATACA [CACACA_site2461] | 9.61 |
| TTTCGTTCATAAAAAAGTACATATGAGCAAAAGGTA [XGTACX_site8936] | 9.19 |

| Sequence | gcPBM binding intensity (ln) |
| --- | --- |
| TATATATATATATATAGTACATATTTATATATGAAA [XGTACX_site8488] | 9.22 |
| GAATTAAAATAATACGTACACACATGTATAATACAT [CACACA_site1004] | 9.57 |
| ACTAAACTAATATGTACACACATATAACATTAATTT [CACACA_site7128] | 9.53 |
| CACAATACTTTCATCACACATATATATATATATATA [CACACA_site4677] | 9.32 |
| AAATAATATTTTTTTTTTTTTTTTTTTTTATGTTAT [CACACA_negctrl_site809] | 9.15 |
| ATACAGTTGCATATGGTGCACGAATAATACACCTAT | 9.21 |
| ATAGTCTTAATGACTACACACCTAACTATGCATGCA [CACACA_site5084] | 9.3 |
| TGGTAGTATATCATAGAAATCATTGTATAACAAATA [XGTACX_negctrl_site569] | 9.21 |
| ATTTTTCTTTTTAATACACACAAAAGTGATACAAAC [CACACA_site3923] | 9.31 |
| TGTATTATATATACACAAATATTTATGTGTGTGTTT [XGTACX_negctrl_site475] | 9.81 |
| TTTTTTTGTATTTGTTTATTTAATGATAAAATTAAA [CACACA_negctrl_site225] | 9.03 |
| AATATAAACAAACACACACACATATATATATATATT [CACACA_site5592] | 10.1 |
| ATGTCATATAATAGTACACACATGAAAATATAAATA [CACACA_site3215] | 9.66 |
| ATAAAAAAAGGACACACACACATATATTTATTTATA [CACACA_site7438] | 10.1 |
| AAAAAAAAAAAAAATAGTACAATACCCAAATATAAC [XGTACX_site6684] | 9.8 |
| ACTATTAAAATGAATACACACAAATATAAAAATATA [CACACA_site4145] | 9.66 |
| GGTAGGGATTATACCACACACACATACACATAAATA [CACACA_site3179] | 9.89 |
| ACGCTACATAAATACGTGCACATCTTTTTGTGTATA [GTGCAC_site9675] | 9.29 |
| CATCTTATATAATCATGTACATATAGAGACTTCTTT [XGTACX_site7685] | 9.19 |
| TTTTTCTTACATGAGTGTACACACTTTTTTTCAGAA [XGTACX_site138] | 9.29 |
| GGGGGAATTTACATGGGTACACATGTATTAAAAAAT [XGTACX_site4130] | 9.43 |
| TTATATGTATGGAGGTTTTTGTATATAGATATATAG [CACACA_negctrl_site177] | 9.29 |

| Sequence | gcPBM binding intensity (ln) |
| --- | --- |
| CATATATATTTGTTCACACACACACTAATAAAAAAA [CACACA_site8787] | 9.92 |
| TGGAGGAACCTCATATGTACGTATAAATATATATTT [XGTACX_site5603] | 9.3 |
| TTAAAGCACCCATGCACACACACAAAGGAAAAGAAA [CACACA_site233] | 9.87 |
| TGATAAATTAAAAATTGTACTATTATAATAATATAT [XGTACX_site6615] | 8.94 |
| TTTATATAAATTTATTCACACAACTAATTTTTTAAA [CACACA_site4848] | 8.94 |
| ACAATAAACATATATACACACACAAAAAAAAAAACA [CACACA_site8033] | 10.3 |
| ATCAAATAGAGACACACACACCTAAACATAAAAGAA [CACACA_site7321] | 9.95 |
| ATTTATTAATATCCCAGTACTCATGGGGAATAATGA [XGTACX_site4014] | 9.12 |
| TTGTGTAAAGGTATTATTGTATTATTCAAAATAAAA [XGTACX_negctrl_site167] | 8.95 |
| AATATATAATATATATGTACTTATATATAAAAGATA [XGTACX_site7635] | 9.21 |
| TATTACATAATACAAAGTACATATATTTTTTTATTT [XGTACX_site7061] | 9.08 |
| GTATATATATATATATGTACTAATTAGTAGTTTACG [XGTACX_site6274] | 9.25 |
| AATATTATAAATGATACACACTTAAAATACACGCAC [CACACA_site7305] | 9.77 |
| ATATTTATACATAAATGTACTTTTATATATTTAATA [XGTACX_site3020] | 9.18 |
| AGCACATATATATTATGTACATATAACTTCCCAGTG [XGTACX_site7095] | 9.36 |
| AATATTTTATTTTGGGTGCAAAAGAATATTATTTCA | 8.93 |
| TGATATTTACAAATATTAAGATCTTATATTTTTTTT [CACACA_negctrl_site617] | 8.98 |
| GTGTGAAACATAAACACACACAAAAAGAAAAAATAG [CACACA_site1227] | 9.7 |
| AATATAAATATTAAAACACACATAAAAAGATTATTA [CACACA_site1764] | 9.41 |
| TATATATATATATTACGTACATAGAACTTTATAAAA [XGTACX_site4485] | 9.08 |
| GAACCATAAGGAACGACACACAAAGATAAATAAATA [CACACA_site3472] | 9.48 |
| AAAAAAAAATTATTCACACATATATATATATATATA [CACACA_site5579] | 9.02 |

| Sequence | gcPBM binding intensity (ln) |
| --- | --- |
| AAAAATAAAAAAAGCACACACATATATATATATATA [CACACA_site1885] | 9.75 |
| AAATTTGCTTTTATTTTACACACTTGCTCCTGTTGT [CACACA_site8276] | 9.81 |
| ATAATATTTTAATGCACACACACAAAAAAAAAAAAA [CACACA_site2891] | 9.72 |
| AAACAATCTAAAAGTAGTACAATAAAAATATATATA [XGTACX_site5607] | 9.41 |
| CGATACTTTAGGTGTACACAAATATACATGAATGAG [CACACA_site5189] | 9.32 |
| AAAAAAAAGGAAATAACACACATGTATTTATTTATA [CACACA_site4966] | 9.26 |
| TTATTATAAATGTTTTGTACGTACATCCGAAAATAA [XGTACX_site2175] | 9.05 |
| TATAATCATATTAAGGGTACATATGTGTAAATATTT [XGTACX_site6018] | 9.23 |
| ATAATAATAATATAACCAAGGAAATATAATATTTGT [XGTACX_negctrl_site485] | 9.41 |
| CTTTAAAACCGGTACTGTACACATAGTATTATTATC [XGTACX_site2602] | 9.39 |
| ATTAATAAGAAATATACACACATGGATAAATACATA [CACACA_site1872] | 9.69 |
| TTTCTTGCTACATGAAGTACACTTTCTATGACTCGT [XGTACX_site5583] | 9.12 |
| ATATATATTTTATTCACACATAAGATTATAAAACAT [CACACA_site5369] | 9.27 |
| TATGATATAATTATGTGTACACAATTTTTTTTTTTT [XGTACX_site1084] | 9.34 |
| TGTGTTCAGTATTGCACACACACAACAAAATAAAAA [CACACA_site8017] | 9.63 |
| TTATTGCATTGTTTTTATAAAAAAAAAAAAAAAATT [XGTACX_negctrl_site104] | 8.96 |
| CTATTTCATGGACACACACACACAAACAAACATATA [CACACA_site4696] | 10.2 |
| ATATATTATATAAAGTGTACAAAAAAAATATATAAA [XGTACX_site8065] | 9.5 |
| TTATAAATATAAAAATGTACAGAAAAAAAAAATAAA [XGTACX_site863] | 9.52 |
| AAAAGATTTATACATACACACATATTATATTCACAT [CACACA_site3713] | 9.64 |
| ATAGAACTATATTGCACACATAATATATATATATAT [CACACA_site3189] | 9.45 |
| GTAAAAAATATGACAAGTACAAGAAAAGAAAAAAGT [XGTACX_site7906] | 9.77 |
